From PubChem BioAssay AID463173 (ICCB-Longwood Screening Facility, Harvard Medical School, 2010)
The whole screen tested about 52,000 compounds, of which about 4,300 (8.3%) were called active. No stated cut-off is given here; in the data, active means survival mostly below about 52% (no sharp cut-off); inactive means mostly above about 56%. This is one part of the list.

Test system: DeltatarO mutant
Test: S. aureus survival, RN4220 and DeltatarO strains – OD600, teichoic acid synthesis inhibitors, primary screen (AID 463173)
Conditions: S. aureus RN4220 wild type/DeltatarO growth, OD600, 18 h, hits give low values, screened at 18.75 µg/mL (by protocol)

| SMILES | survival |
| --- | --- |
| CCCc1ccc(S(=O)(=O)N2CCC(c3nnc(-c4cccc(C)c4)o3)CC2)cc1 | inactive: 75% |
| Cc1cccc(N2C(=O)CSC23C(=O)N(CC(=O)Nc2cccc(Cl)c2)c2ccccc23)c1 (stereo unspecified) | inactive: 100% |
| CC1CCN(S(=O)(=O)c2cc3c4c(c2)C(C)C(=O)N4CCC3)CC1 (stereo unspecified) | inactive: 107% |
| C=C/C=C(\C=C(C)C)N(C(=O)NC1CCCCC1)C1=NCCCS1 | inactive: 102% |
| O=C(NC1CCCCCC1)C1c2ccccc2C(=O)N1Cc1ccc(F)cc1 (stereo unspecified) | inactive: 111% |
| COc1ccccc1CCN1COc2c(cc3c(C)c(C)c(=O)oc3c2C)C1 | inactive: 103% |
| O=C(NCc1ccco1)C(c1cccs1)N(C(=O)C1COc2ccccc2O1)c1cccc(O)c1 (stereo unspecified) | inactive: 63% |
| COc1ccc(CNC(=O)CN2C(=O)CSc3ccc(S(=O)(=O)N(C)C)cc32)cc1 | inactive: 124% |
| CCOC(=O)C1CCN(c2cc(C)c(C#N)c3nc4ccccc4n23)CC1 | inactive: 100% |
| Cc1cc(=O)n2nc(N3CCC(C(=O)Nc4c(C)cccc4C)CC3)sc2n1 | inactive: 114% |
| Nc1c(C(=O)Nc2cccc(F)c2)nnn1-c1cccc(C(F)(F)F)c1 | inactive: 75% |
| CCOC(=O)C(Cc1ccccc1)N1C(=O)c2ccccc2C1=O (stereo unspecified) | inactive: 71% |
| CCc1cccc(NC(=O)Cn2c(=O)n(CCC(=O)NCc3ccccc3Cl)c(=O)c3sccc32)c1 | inactive: 76% |
| CCOc1nc(C)c(/C=C/C(=O)O)c(OCC)n1 | inactive: 76% |
| CCN(CC)c1ccc(NC(=O)CN2CCN(c3ccccc3OC)CC2)cc1 | inactive: 88% |
| Oc1c(C(c2ccccc2)N2CCOCC2)sc2nc(-c3ccco3)nn12 (stereo unspecified) | inactive: 69% |
| CCc1nc2nc(C)c(NS(=O)(=O)c3ccc(C(C)(C)C)cc3)c(=O)n2[nH]1 | inactive: 86% |
| CCOC(=O)c1sc2ncn(CC(=O)Nc3ccc(OCC)cc3)c(=O)c2c1C | inactive: 59% |
| COc1ccc(-c2nc(C)c(CCNS(=O)(=O)c3cc(Cl)ccc3Cl)s2)cc1 | inactive: 66% |

| SMILES | survival |
| --- | --- |
| CCc1ccc(S(=O)(=O)Nc2cc3c(C(=O)OCc4ccccc4)c(C)oc3c3ccccc23)cc1 | inactive: 60% |
| Cc1c(C(=O)Nc2cccc(C(F)(F)F)c2)oc2ccc3c(c12)C(=O)CC(C)(C)O3 | inactive: 84% |
| CCc1nn2c(=O)cc(COC(=O)COc3ccc(OC)cc3)nc2s1 | inactive: 84% |
| COC(=O)CN1C(=O)CSc2ccc(S(=O)(=O)Nc3cc(C)ccc3C)cc21 | active: 25% |
| CCC(=O)N1c2ccccc2CC1C(=O)NCCc1ccc(OC)c(OC)c1 (stereo unspecified) | inactive: 99% |
| Cc1cc(C)c(NC(=O)c2sc3nc(C)cc(C)c3c2NC(=O)c2ccccc2)c(C)c1 | inactive: 62% |
| CCOC(=O)c1c(C)[nH]c(C)c1S(=O)(=O)N1CCC(C(=O)Nc2cc(Cl)ccc2OC)CC1 | inactive: 70% |
| CC1=C(c2ccc(C)c(C)c2)S(=O)(=O)NC1=NCc1ccccc1Cl | inactive: 81% |
| O=C(NC1CCCCC1)C(c1ccc(O)c(O)c1)N(C(=O)Cn1nnc2ccccc21)C1CCCCC1 (stereo unspecified) | inactive: 99% |
| CCOc1ccc(CCNC(=O)c2cn(C)c3ccc(S(=O)(=O)N4CCCCC4)cc3c2=O)cc1OCC | inactive: 101% |
| COc1ccccc1C(=O)Nc1cccc(C(=O)OCc2cc(=O)n3cc(C)sc3n2)c1 | inactive: 94% |
| Cc1cc(OCC(=O)Nc2ncn[nH]2)ccc1Cl | inactive: 64% |
| Cc1ccc(S(=O)(=O)N(CC(=O)Nc2ccc3c(c2)OCO3)c2cc(Cl)cc(Cl)c2)cc1 | inactive: 140% |
| CCOC(=O)Nc1ccc2c(c1)N(CCCN(C)C)c1ccccc1CC2 | inactive: 73% |
| CCN(CC)S(=O)(=O)c1ccc(OC)c(-n2cnnn2)c1 | inactive: 65% |
| O=C(NCCC1=CCCCC1)c1ccc2c(c1)N(Cc1cccc(Cl)c1)C(=O)c1ccccc1S2=O (stereo unspecified) | active: 37% |
| CC(C)CCNC(=O)Cc1ccc(NC(=O)N2CCCCc3ccccc32)cc1 | inactive: 78% |
| COc1ccc(CNC(=O)Cn2c(=O)nc(-c3ccccc3)c3ccccc32)cc1OC | inactive: 89% |
| CCCCC(=O)NC1CC(=O)N(c2ccc3c(c2)OCCO3)C1 (stereo unspecified) | inactive: 129% |

| SMILES | survival |
| --- | --- |
| Cc1c(NC(=O)c2ccc(-c3cccc([N+](=O)[O-])c3)o2)cccc1-c1nc2cc(Cl)ccc2o1 | inactive: 52% |
| Cn1c(=O)oc2cc(S(=O)(=O)NCCC(=O)Nc3ccc(F)cc3F)ccc21 | inactive: 88% |
| CC(=O)c1ccc(N2CCN(C(=O)C3CCCN(S(=O)(=O)c4ccc(Br)s4)C3)CC2)cc1 (stereo unspecified) | inactive: 76% |
| COc1cc(CCC(=O)NCc2ccc3c(c2)CCN3C(=O)c2ccccc2)cc(OC)c1OC | inactive: 109% |
| CCC1CN(S(=O)(=O)c2cc(-c3cc(C)no3)ccc2C)c2cc(C)ccc2O1 (stereo unspecified) | active: 52% |
| Cc1nc2c(-c3ccc(F)cc3)c(C)nn2c(C)c1CCC(=O)N1CCN(c2ccccc2)CC1 | inactive: 67% |
| COC(=O)c1cc2oc3ccccc3c2n1Cc1nc(-c2ccc(Cl)cc2)oc1C | inactive: 91% |
| O=C(O)CCSc1nc(-c2ccccc2)cc(=O)[nH]1 | inactive: 107% |
| CCCCn1c(SCC(=O)c2ccccc2)nc2c(sc3ccccc32)c1=O | active: 17% |
| CCc1ccc(CNC(=O)c2nn(-c3ccc(C)cc3)c(=O)c3c2c2ccccc2n3C)cc1 | inactive: 145% |
| O=C(C(F)F)N(Cc1ccccc1)Cc1ccccc1 | inactive: 75% |
| CC(=O)OC1OCCOC1OC(C)=O (stereo unspecified) | inactive: 85% |
| CC(C)CC(NS(=O)(=O)c1ccccc1)C(=O)O (stereo unspecified) | inactive: 77% |
| O=C(CN1C(=O)C(c2ccc(F)cc2)=NC12CCCCCC2)Nc1ccccc1Cl | inactive: 84% |
| Cc1cc(C)c(NC(=O)Cn2nc(-c3ccncc3)ccc2=O)c(C)c1 | inactive: 86% |
| CCCn1c(=O)n(-c2ccccc2Cl)c(=O)c2sc3ccccc3c21 | inactive: 95% |
| CC1=Nc2cc(C(=O)NCc3ccccc3Cl)ccc2Sc2c(C)ccc(C)c21 | inactive: 79% |
| COc1ccc(-c2ccc3c(N)c(C(=O)Nc4ccc(C(F)(F)F)cc4)sc3n2)cc1OC | inactive: 97% |
